The record followed here is patent publication US8633183B2 (priority 2010, dated 2014).

SMILES strings stand for the structures.

In assay [1] the test system is U87MG human glioblastoma cell line. In words: cells. To be noted: U-87 MG, read-out: EC50 U87MG.
Another assay deals with BT474. In words: cells. Particulars: Homo sapiens, BT-474, read-out: EC50 BT474.

In general, EC50 refers to the concentration that produces a half-maximal response. In the case of `CCc1ncnc(-c2cc(F)c(C(=O)N3CCN(C(C)C)CC3)c(F)c2)c1C#Cc1ccc(N)nc1` [Example E-2], in assay [1], the EC50 amounted to 45.2 nM.
Still for that read-out and setting: the same measure for `CCc1ncnc(-c2cc(F)c(C(=O)N3CCN(C4CCOCC4)CC3)c(F)c2)c1C#Cc1ccc(N)nc1` [Example E-6]: 24.9 nM; for `CCc1ncnc(-c2cc(F)c(C(=O)N3CCN(C(C)(C)C)CC3)c(F)c2)c1C#Cc1ccc(N)nc1` [Example E-8]: 84 nM.
Still for that read-out and setting: the same measure for `CCc1ncnc(-c2cc(F)c(C(=O)N(C)C)c(F)c2)c1C#Cc1ccc(N)nc1` [Example E-10]: 48.7 nM; for `CCc1ncnc(-c2cc(F)c(C(=O)N3CCCC3)c(F)c2)c1C#Cc1ccc(N)nc1` [Example E-11]: 79.8 nM.
Still for that read-out and setting: the same measure for `CCc1ncnc(-c2cc(F)c(C(=O)NC)c(F)c2)c1C#Cc1ccc(N)nc1` [Example E-12]: 89.9 nM; for `CCc1ncnc(-c2cc(F)c(C(=O)NCCN3CCOCC3)c(F)c2)c1C#Cc1ccc(N)nc1` [Example E-13]: 85.3 nM.
Consider `CCc1ncnc(-c2ccc(C(=O)N3CCOC(C)(C)C3)c(F)c2)c1C#Cc1ccc(N)nc1` [Example E-15], for which the half-maximal effective concentration (EC50) in assay [1] was found to be 64.2 nM.
Consider `CCc1ncnc(-c2ccc(C(=O)N3C[C@H]4C[C@@H]3CN4C)c(F)c2)c1C#Cc1ccc(N)nc1` [Example E-16], for which the concentration giving a half-maximal response (EC50) in assay [1] came out at 125 nM.
Same read-out and setting: under `CCc1ncnc(-c2ccc(C(=O)N3CCC[C@H]3CO)c(F)c2)c1C#Cc1ccc(N)nc1` [Example E-17] stands 96.5 nM; under `CCc1ncnc(-c2ccc(C(=O)N3CCN(CC4CC4)CC3)c(Cl)c2)c1C#Cc1ccc(N)nc1` [Example E-18], 42 nM; under `CCc1ncnc(-c2ccc(C(=O)N3CCC(C(C)(C)O)CC3)c(Cl)c2)c1C#Cc1ccc(N)nc1` [Example E-20], 55.3 nM.
On to `CCc1ncnc(-c2ccc(C(=O)N3CCC(C4CCN(C)CC4)CC3)c(Cl)c2)c1C#Cc1ccc(N)nc1` [Example E-21], for which the EC50 in assay [1] came to 77.6 nM.
Consider `CCc1ncnc(-c2ccc(C(=O)NC3CCCN(C)C3)c(Cl)c2)c1C#Cc1ccc(N)nc1` (stereo not drawn) [Example E-22], for which the 50% effective concentration (EC50) in assay [1] is 225 nM.
Regarding `CCc1ncnc(-c2ccc(C(=O)N3CC[S+]([O-])CC3)c(Cl)c2)c1C#Cc1ccc(N)nc1` [Example E-23], in assay [1], the EC50 turned out to be 43 nM.
Still for that read-out and setting: the same measure for `CCc1ncnc(-c2ccc(C(=O)N3CCC(OC)CC3)c(Cl)c2)c1C#Cc1ccc(N)nc1` [Example E-24]: 57.8 nM.
On to `CCc1ncnc(-c2ccc(C(=O)N3CCC(C)(O)CC3)c(Cl)c2)c1C#Cc1ccc(N)nc1` [Example E-25], for which the EC50 in assay [1] was determined as 57.3 nM.
For the molecule `CCc1ncnc(-c2ccc(C(=O)N3CCC4(CCN(C)CC4)CC3)c(Cl)c2)c1C#Cc1ccc(N)nc1` [Example E-26], the half-maximal effective concentration (EC50) in assay [1] came out at 338 nM.
Take `CCc1ncnc(-c2ccc(C(=O)N3CC[C@H](O)C3)c(Cl)c2)c1C#Cc1ccc(N)nc1` [Example E-27]: the EC50 in assay [1] is 149 nM.
As to `CCc1ncnc(-c2ccc(C(=O)N3CC[C@@H](O)C3)c(Cl)c2)c1C#Cc1ccc(N)nc1` [Example E-28], the half-maximal effective concentration (EC50) in assay [1] worked out at 229 nM.
The same measure, in the same setting: under `CCc1ncnc(-c2ccc(C(=O)N3CCCC(O)C3)c(Cl)c2)c1C#Cc1ccc(N)nc1` (stereo not drawn) [Example E-29] stands 69.6 nM; under `CCc1ncnc(-c2ccc(C(=O)N3CCNCC3)c(Cl)c2)c1C#Cc1ccc(N)nc1` [Example E-34], 174 nM.
As for `CCc1ncnc(-c2ccc(C(=O)N(C)O)c(Cl)c2)c1C#Cc1ccc(N)nc1` [Example E-35], in assay [1], the EC50 came out at 134 nM.
`CCc1ncnc(-c2ccc(C(=O)N3CCCN(C)CC3)c(Cl)c2)c1C#Cc1ccc(N)nc1` [Example E-36]: the concentration for a half-maximal effect (EC50) in assay [1] amounted to 255 nM.
For the molecule `CCc1ncnc(-c2ccc(C(=O)N3CCN(c4ccncc4)CC3)c(Cl)c2)c1C#Cc1ccc(N)nc1` [Example E-37], the concentration giving a half-maximal response (EC50) in assay [1] was 117 nM.
Turning to `CCc1ncnc(-c2ccc(C(=O)N3CCC(O)CC3)c(Cl)c2)c1C#Cc1ccc(N)nc1` [Example E-38], the EC50 in assay [1] was found to be 137 nM.
As to `CCc1ncnc(-c2ccc(C(=O)N3CCCOCC3)c(Cl)c2)c1C#Cc1ccc(N)nc1` [Example E-39], the 50% effective concentration (EC50) in assay [1] turned out to be 75.6 nM.
Consider `CCc1ncnc(-c2ccc(C(=O)N3CCC4(CCN(C)C4)C3)c(Cl)c2)c1C#Cc1ccc(N)nc1` (stereo not drawn) [Example E-40], for which the half-maximal effective concentration (EC50) in assay [1] came to 373 nM.
For the molecule `CCc1ncnc(-c2ccc(C(=O)NCC3(C)COC3)c(Cl)c2)c1C#Cc1ccc(N)nc1` [Example E-41], the EC50 in assay [1] worked out at 78 nM.
With `CCc1ncnc(-c2ccc(C(=O)N3CCN(Cc4ccccc4)CC3)c(Cl)c2)c1C#Cc1ccc(N)nc1` [Example E-42], in assay [1], the EC50 amounted to 248 nM.
Take `CCCCN1CCN(C(=O)c2ccc(-c3ncnc(CC)c3C#Cc3ccc(N)nc3)cc2OC)CC1` [Example E-43]: in assay [1], the concentration giving a half-maximal response (EC50) was determined as 207 nM.
With `CCc1ncnc(-c2ccc(C(=O)N3CCC(C(C)(C)O)CC3)c(OC)c2)c1C#Cc1ccc(N)nc1` [Example E-44], the 50% effective concentration (EC50) in assay [1] came to 200 nM.
Still for that read-out and setting: under `CCc1ncnc(-c2ccc(C(=O)N3CCC(N4CCN(C)CC4)CC3)c(OC)c2)c1C#Cc1ccc(N)nc1` [Example E-45] stands 448 nM; under `CCc1ncnc(-c2ccc(C(=O)N3CCCC(O)C3)c(OC)c2)c1C#Cc1ccc(N)nc1` (stereo not drawn) [Example E-46], 186 nM.
`CCc1ncnc(-c2ccc(C(=O)N3CCOCC3)c(OC)c2)c1C#Cc1ccc(N)nc1` [Example E-48]: the EC50 in assay [1] is 160 nM.
As to `CCc1ncnc(-c2ccc(C(=O)N3CC(O)CO3)c(OC)c2)c1C#Cc1ccc(N)nc1` (stereo not drawn) [Example E-49], in assay [1], the half-maximal effective concentration (EC50) stood at 1060 nM.
The same measure, in the same setting: under `CCc1ncnc(-c2ccc(C(=O)N3CCCO3)c(OC)c2)c1C#Cc1ccc(N)nc1` [Example E-50] stands 149 nM.
As to `CCc1ncnc(-c2ccc(C(=O)N3CCN(C4CCS(=O)(=O)C4)CC3)c(OC)c2)c1C#Cc1ccc(N)nc1` (stereo not drawn) [Example E-54], in assay [1], the EC50 worked out at 515 nM.
Take `CCc1ncnc(-c2ccc(C(=O)N3CC[C@@H](N(C)C)C3)c(OC)c2)c1C#Cc1ccc(N)nc1` [Example E-56]: the concentration for a half-maximal effect (EC50) in assay [1] was determined as 452 nM.
Regarding `CCc1ncnc(-c2ccc(C(=O)N3CCN4CCCCC4C3)c(OC)c2)c1C#Cc1ccc(N)nc1` (stereo not drawn) [Example E-57], the EC50 in assay [1] was 202 nM.
On to `CCNc1ccc(C#Cc2c(CC)ncnc2-c2ccc(C(=O)N3CCn4cnnc4C3)c(F)c2)cn1` [Example E-261], for which, in the assay on BT474, the EC50 worked out at 11.4 nM.
As for `CCNc1ccc(C#Cc2c(CC)ncnc2-c2ccc(C(=O)N3CCn4c(C)cnc4C3)c(F)c2)cn1` [Example E-262], the 50% effective concentration (EC50) in the assay on BT474 turned out to be 18.8 nM.
On to `CCNc1ccc(C#Cc2c(CC)ncnc2-c2ccc(C(=O)N3CCC4(CC3)COC4)c(F)c2)cn1` [Example E-263], for which the concentration for a half-maximal effect (EC50) with BT474 was found to be 22.9 nM.
For the molecule `CCNc1ccc(C#Cc2c(CC)ncnc2-c2ccc(C(=O)N3CCN(C4CCC4)CC3)c(F)c2)cn1` [Example E-265], in the assay with BT474, the concentration giving a half-maximal response (EC50) is 24.3 nM.
Take `CCNc1ccc(C#Cc2c(CC)ncnc2-c2ccc(C(=O)N3CCC4(CC3)CN(C(=O)OC(C)(C)C)C4)c(F)c2)cn1` [Example E-266]: the EC50 in the assay with BT474 came out at 273 nM.
Still for that read-out and setting: under `CCNc1ccc(C#Cc2c(CC)ncnc2-c2ccc(C(=O)N3CC4(CN(C(=O)OC(C)(C)C)C4)C3)c(F)c2)cn1` [Example E-267] stands 169 nM; under `CCc1ncnc(-c2ccc(C(=O)N3CCC4(CC3)CNC4)c(F)c2)c1C#Cc1ccc(N)nc1` [Example E-268], 438 nM; under `CCc1ncnc(-c2ccc(C(=O)N3CC4(CNC4)C3)c(F)c2)c1C#Cc1ccc(N)nc1` [Example E-269], 59.7 nM.
As to `CCc1ncnc(-c2ccc(C(=O)N3CC4(CNC4)C3)c(Cl)c2)c1C#Cc1ccc(N)nc1` [Example E-270], in the assay with BT474, the concentration for a half-maximal effect (EC50) is 213 nM.
Still for that read-out and setting: under `CCc1ncnc(-c2ccc(C(=O)N3CCN(C4COC4)CC3)c(F)c2)c1C#Cc1ccc(N)nc1` [Example E-271] stands 10.3 nM; under `CCc1ncnc(-c2ccc(C(=O)N3CCC(CN(C)C)CC3)c(F)c2)c1C#Cc1ccc(N)nc1` [Example E-272], 107 nM; under `CCc1ncnc(-c2ccc(C(=O)N3CCN(C4COC4)CC3)c(Cl)c2)c1C#Cc1ccc(N)nc1` [Example E-273], 14.1 nM.
`CCc1ncnc(-c2cc(F)c(C(=O)N3CCN(C4COC4)CC3)c(F)c2)c1C#Cc1ccc(N)nc1` [Example E-275]: the EC50 in the assay on BT474 came to 15.5 nM.
In the case of `CCc1ncnc(-c2ccc(C(=O)N3CCN(C4COC4)CC3)c(F)c2)c1C#Cc1ccc(N)nc1C` [Example E-280], the 50% effective concentration (EC50) in the assay with BT474 came to 36.6 nM.
The same measure, in the same setting: the same measure for `CCc1ncnc(-c2cc(F)c(C(=O)N3CCN(C4COC4)CC3)c(Cl)c2)c1C#Cc1ccc(N)nc1` [Example E-282]: 8.61 nM; for `CCc1ncnc(-c2ccc(C(=O)N3CCN(CCN)CC3)c(Cl)c2)c1C#Cc1ccc(N)nc1` [Example E-284]: 77.8 nM.
`CCc1ncnc(-c2cc(F)c(C(=O)N3CCC(CN)CC3)c(Cl)c2)c1C#Cc1ccc(N)nc1` [Example E-285]: the concentration giving a half-maximal response (EC50) with BT474 was 12.4 nM.
The same measure, in the same setting: under `CCc1ncnc(-c2cc(F)c(C(=O)N3CCN(CCN)CC3)c(Cl)c2)c1C#Cc1ccc(N)nc1` [Example E-286] stands 29.4 nM; under `CCc1ncnc(-c2ccc(C(=O)N3CC4(CN(C)C4)C3)c(F)c2)c1C#Cc1ccc(N)nc1` [Example E-287], 523 nM; under `CCc1ncnc(-c2cc(F)c(C(=O)N3CC4(CN(C)C4)C3)c(Cl)c2)c1C#Cc1ccc(N)nc1` [Example E-289], 71.4 nM.
Still for that read-out and setting: under `CCc1ncnc(-c2ccc(C(=O)N3CCN(Cc4cc(C)no4)CC3)c(F)c2)c1C#Cc1ccc(N)nc1` [Example E-290] stands 14.9 nM; under `CCc1ncnc(-c2ccc(C(=O)N3CCN(C(C)COC)CC3)c(F)c2)c1C#Cc1ccc(N)nc1` (stereo not drawn) [Example E-291], 18.2 nM; under `CCc1ncnc(-c2ccc(C(=O)N3CCN(C(C)CO)CC3)c(F)c2)c1C#Cc1ccc(N)nc1` (stereo not drawn) [Example E-292], 20.3 nM.
Still for that read-out and setting: under `CCc1ncnc(-c2ccc(C(=O)N3CCN(C4CCCC4O)CC3)c(F)c2)c1C#Cc1ccc(N)nc1` (stereo not drawn) [Example E-294] stands 11.2 nM; under `CCc1ncnc(-c2ccc(C(=O)N3CCc4ncccc4C3)c(F)c2)c1C#Cc1ccc(N)nc1` [Example E-295], 15.1 nM; under `CCc1ncnc(-c2ccc(C(=O)N3CCN(CC(C)O)CC3)c(F)c2)c1C#Cc1ccc(N)nc1` (stereo not drawn) [Example E-296], 18.5 nM.
